# The source holds several records for some structures; these can differ, active in one and inactive in another.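 Percent growth is the endpoint: 0 to 100 indicates growth inhibition (40 means 60% inhibition), 0 means no net growth, and negative values indicate cell death.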 For part of its entries the source gives two or more results. They are shown here; other results are not. How the source made its calls: active means growth percent below 10; inactive means the rest. An entry can have further records. This drug was run again and again over the years, at the concentration stated with the values; one value stands for one run. Brackets with × say how often a value occurs here.
# Tested on: MDA-MB-231 breast
# Assay: NCI-60 one-dose screen, 48 h (100 = growth as untreated, 0 = no growth, -100 = all killed)
structure (smiles),measurement,setting,value
COc1cccc2c1C(=O)c1c(O)c3c(c(O)c1C2=O)C[C@@](O)(C(=O)CO)C[C@@H]3OC1CC(N)C(O)C(C)O1 (stereo not given in full),growth,"0.25 µM, runs of 2011","inactive: 79.7, 89.4, 71.9, 83.7, 83.1, 74.3, 99.2, 90.6, 95.7, 94.2 (2×), 88.8, 110, 114, 99.6, 109 (2×), 99, 86.3 (2×), 84.9, 90.3, 91.2, 86.5, 98, 88.7, 95.3, 84.6, 91.6, 81, 69.8, 75.8, 78.5, 63.6 (2×), 71, 61.4, 68.5, 65.2, 66, 58.8, 64.9, 84.2 (2×), 84.1, 78.6, 85.9, 84.7, 82.4, 94.4, 85.4, 92.1, 98.2, 77.6%"
same,growth,"0.25 µM, runs of 2012","inactive: 79, 70.2, 80.4, 82.2, 67.7, 71.6, 77.8, 87.2, 86, 77, 84.2 (2×), 79.3, 85.4 (2×), 94.2 (2×), 72.3, 79.8, 89.2, 95, 77.2, 84.9, 101, 90.7, 79.7, 112, 109, 102, 94.9, 97, 108, 88.8, 96.9, 90.1, 73.2, 86.6, 84.7, 65.7, 82.7, 86.5, 81.4, 92.8, 95.4, 96.7, 103 (2×), 98.2, 96.4, 91.8, 90.4, 95.3, 105, 92.1, 85, 89.6, 83.6, 83.9, 66, 76.7, 90.8, 87.7, 74.8, 87.6, 85.8, 91.4, 85.7, 86.8, 91.2, 84.1, 82.5%"
same,growth,"0.25 µM, runs of 2013","inactive: 86.2, 83.2, 92.7, 96, 81.1, 79.1, 88.7, 84.5, 106 (2×), 99.3, 78.2, 84.9 (3×), 87.3, 81.8, 94.4 (2×), 93.3, 90.5, 98.8, 107, 91.7, 89.5 (3×), 93.8, 97.5, 105 (2×), 99, 103, 86.8 (3×), 86, 87.8, 79.8, 88.4, 89.4, 90.9, 85.2, 79, 78.5, 82.2, 76.7 (2×), 82.9, 84, 85.9, 88.1, 73.2 (2×), 82.6, 74.5, 79.6 (2×), 82.7, 84.3, 99.9, 71.7, 81, 85.1, 68.5, 73.7, 71.4, 67.9 (2×), 57.9, 68.8, 83.8, 79.7, 79.4, 70.2, 68, 76.6, 78.7, 72.3%"
same,growth,"0.25 µM, runs of 2014","inactive: 62.2, 62.7, 59.8, 49.7, 53.1, 59.7, 56.2, 68, 81.2 (2×), 80.6, 85.3, 86.3, 78.8, 76.4, 78.4, 76.8, 73.3, 75.6, 65.6, 84.1, 86.8, 76.3 (3×), 79.2, 82.8, 80 (2×), 90.9, 85.9, 96.1, 97.9, 68.3, 58.7, 70.9, 71.5, 82.5, 85.6, 73.5, 54.8, 60.1, 78.7, 71.4, 73.7, 66.2, 71.6, 83.3, 73, 82.2, 70.3, 47.5, 58.1, 58.8, 57.8, 55.8, 54.9, 58.9, 62.1, 57.1, 58.2, 69.2, 68.5, 78.1, 68.4, 61.1, 69.8, 67.4, 87.2, 97.7, 61, 73.2, 61.4%"
same,growth,"0.25 µM, runs of 2015","inactive: 65, 67.3, 73.3, 59.8, 59.6 (2×), 61.2, 65.5, 68.3, 61.9, 52.9, 50.7, 73.8, 65.4, 73, 65.1, 71.6 (2×), 70.2, 62.8, 77.7 (2×), 63.6, 74.1, 67.6, 69.8, 60.2, 58.5 (2×), 69.7, 75.5 (2×), 63.3, 65.6, 72.6, 70.7, 65.8 (3×), 52.1, 73.1, 64.4, 56.8, 51.8, 62.3, 54.5 (2×), 67.4 (2×), 53.7, 51.5, 44.5, 49, 68.9, 49.2, 49.5, 65.2 (2×), 47.1, 52.5, 57.8, 72.1, 53.4, 60.4, 78.4, 82.3, 72, 66.9, 54.9, 59, 69, 55.3, 72.3%"
same,growth,"0.25 µM, runs of 2016","inactive: 58.9 (2×), 54.4, 57.4, 87.9, 82.4, 76.7, 79.6 (2×), 81.4 (2×), 85.3, 82.6, 78.4 (2×), 81.5, 80.8, 80.3, 71.2, 70.7, 79.4 (2×), 65.5, 60.5, 68, 70.3, 68.3 (3×), 63.1, 71, 69.5, 65.1, 62.2, 63.8, 60, 64.4, 65.6, 70.2, 74.6 (2×), 86.2, 78.1, 81.3, 80.1, 77.7, 81.2, 73.2, 82.9, 84.6 (2×), 79, 76.3, 74.2, 69.9, 72.5 (2×), 65, 80.6, 73.9, 70.8, 71.4, 71.8, 67, 82.5, 74.1 (2×), 75.8, 76.1, 76, 69.6 (2×), 77.6, 86.5, 87.8, 96, 88.5, 91.3, 84.1, 89.5, 89.2, 89.7, 76.5, 76.9, 79.5, 75.5, 67.6%"
same,growth,"0.25 µM, runs of 2017","inactive: 64.6, 66.4 (2×), 68.7 (3×), 78.4, 71.9, 71 (2×), 64.2, 62.1, 81.3, 77 (2×), 73.5, 72, 70.9 (2×), 67.1, 66.6, 80.4, 73.4 (2×), 63.5, 67.2, 66.9, 61.2, 74.7, 70.2 (4×), 76.4, 73.2, 68.8, 71.7, 72.7, 67.9, 72.5, 79.7, 73.7 (2×), 72.1, 70.7, 70.5, 73.9, 69.7, 69.5, 69.9 (2×), 68.3, 81.1, 65.1, 68.1 (2×), 64.8, 60.2, 66, 65.5, 70.4, 65.8, 71.2, 59.6, 61.9, 54.4, 58.4, 55.7, 53.2, 52.5, 65.6, 67, 66.1, 73.8, 67.5, 83.1, 97.1, 77.6, 76.2, 68.4, 73.3, 62.8%"
same,growth,"0.25 µM, runs of 2018","inactive: 65.9, 73.5 (2×), 69.1, 71, 67.1, 67.8, 70.8, 71.9 (2×), 68.8, 68.4, 62.5, 81.4, 71.4, 79.7, 73.2, 78.6, 73.9, 83.3, 76.1, 80.8, 78.2, 71.8, 72.7, 65.5, 68.5, 72.6, 87.6, 70.9 (2×), 63.1, 66, 76.6, 71.6, 67.7, 61.7, 73.1, 76.5, 65.8 (2×), 56.7, 63.3, 61.8, 59.5, 67.4, 73.4, 81.5, 79, 73.8, 60.8, 75.5%"
same,growth,"0.25 µM, runs of 2019","inactive: 59.5, 62.1, 67.4 (2×), 59, 66.7, 62.4, 65.5 (2×), 64.6, 66, 70.5, 68, 72.1, 66.9 (3×), 70.2, 54.8, 53.4, 66.8, 72.7, 65.2, 68.9, 75.5, 69.5, 78.3, 66.6 (2×), 71.6, 70.9, 70.3, 71, 68.8, 70.4, 69.6, 69, 57, 60.8, 62.6, 60.1, 62.5, 61.5%"
same,growth,"0.25 µM, runs of 2020","inactive: 56.5, 49.7, 62.4, 59.5 (2×), 60.7, 63.9, 57.4, 55.8, 65.1, 67.6, 66.1, 59, 68.1, 65.2, 79.6, 67.7, 55.7, 70.4, 72.7, 57.5, 66.7, 54.2, 54.5, 55.9%"
same,growth,"0.25 µM, runs of 2021","inactive: 79.8, 79.7, 75.8, 73, 68.3 (2×), 57.1, 54.1, 52.3, 56.5, 57.5, 49.7, 53.2, 48.8, 50.7, 68.2 (2×), 70.8, 75.7, 63.5, 66.6, 65.6, 73.2, 69.9, 50.1, 47.9, 40.2, 41.2, 32.2, 35.4, 33.7 (2×), 34.5, 34.6, 32.3, 33.9, 74.8, 75.5, 70.5, 73.9, 56.3, 58.5, 57.9, 47.4, 51.9, 60.8, 55.8, 57.4, 62.8, 61.7, 62.2%"
same,growth,"0.25 µM, runs of 2022","inactive: 21.2, 21.7, 55.5, 61.1, 32.4, 50.4, 57, 69.5, 50.6, 66.1, 48.7, 52.6, 59.6, 52.9, 40, 63.6, 72, 44.2, 102, 83.4, 93.8% and active: 8.15%"
same,growth,"25 µM, runs of 1993","active: -10.5, -13.9, -56.2, -71.2, 4.73, -26.2, -16.5, -59.2, -49.5, -47.9, -58.5, -66.8, -9.95, -30.7, -29.8, -5.26, -29.4, -72.9, -52, -17.4, -10, -24.4, -43.5, -41, 1.88, -53.1, -50.6, -0.584, -3.18, -64.5, -54.5, -68.6, -72.8, -12.5, -4.62, -65.5 (2×), -54.3, -38.9, 9.21, -63.2, -56.5, -23.3, -70.9%"
same,growth,"25 µM, runs of 1994","active: -36.6, -70.8, -66.5, -68.6, -60.1, -40.8 (2×), -66.2, -44.9, -62.5, -26.8, -5.65, -71.2, -55.8, -45.4, -30.3, -50, -48, -34.1, -53.4, -46.9, -14.3, -60.4, -27.1, -26.6, -49.1, -16.6, -8.67, -32.4% and inactive: 149%, 10.3%, 11.4%"
same,growth,"25 µM, runs of 1995","active: -30.2, -52.5, -72.2, -51, -95.3, -43.1, -55.1, -59.2, -76.6, -59.6, -90.7, -44.9, -91.2, -49, -41 (2×), -33.4, -58.1, -48.9, -19, -44.5, -68.3, -49.9, -42.2, -49.7, -44.7, -51.7, -39, -38.4, -53.8, -45, -43.2, -46.2, -46, -41.1, -47, -16.1, -40.3, -40.9%"

# Reference: PubChem BioAssay (NCI)
